Our source for the cell count values is the supplement of paper PMC4604168 (melanoma cell lines).

Some of the results follow. Repeats are few or missing, and single values can be far off.
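Note: cells treated in 1,536-well plates, then fixed and DAPI-stained, with nuclei counted from automated high-throughput microscope images.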

The subject of this test is A2058. Nature of the test: cell count relative to DMSO control; melanoma cells; higher = more viable cells. The following applies: library dose: standard library concentration; 72 h.
Take `O=C(Nc1ccccc1)c1cc([N+](=O)[O-])ccc1Cl` + COc1ccc(-c2ccc3c(N4CCOCC4)nc(N4C[C@@H](C)O[C@@H](C)C4)nc3n2)cc1CO [KU0063794] (first compound 10 µM, partner dose 0.1 µM): the cell count was 98.8%.

Molecule `O=C(Nc1cc(C(F)(F)F)cc(C(F)(F)F)c1)c1cc(Cl)ccc1O` + Nc1cccc2c1CN(C1CCC(=O)NC1=O)C2=O [lenalidomide] (first compound 0.08 µM, partner dose 5 µM) gave a cell count of 109%.

As for `O=C(O)c1ccc2c(c1)nc(Nc1cccc(Cl)c1)c1ccncc12` + CC(=O)c1c(C)c2cnc(Nc3ccc(N4CCNCC4)cn3)nc2n(C2CCCC2)c1=O [palbociclib] (first compound 2 µM, partner dose 0.2 µM), the cell count was 74.8%. The value for `O=C(Nc1cc(C(F)(F)F)cc(C(F)(F)F)c1)c1cc(Cl)ccc1O` + COc1ccc(C2=N[C@@H](c3ccc(Cl)cc3)[C@@H](c3ccc(Cl)cc3)N2C(=O)N2CCNC(=O)C2)c(OC(C)C)c1 [Nutlin-3] (first compound 0.08 µM, partner dose 0.5 µM) was 104%; that for `O=C(O)c1ccc2c(c1)nc(Nc1cccc(Cl)c1)c1ccncc12` + CC1(C)NC(=O)N(c2ccc([N+](=O)[O-])c(C(F)(F)F)c2)C1=O [nilutamide] (first compound 2 µM, partner dose 5 µM) was 92%; that for `O=C(O)[C@@H]1[O][Sb](=[O])([O][Sb]2(=[O])[O][C@H]([C@H](O)CO)[C@H](O)[C@H](C(=O)O)[O]2)[O][C@H]([C@H](O)CO)[C@@H]1O` (stereo partly drawn) [stibogluconate] + CO[C@@H]1[C@H](N(C)C(=O)c2ccccc2)C[C@H]2O[C@]1(C)n1c3ccccc3c3c4c(c5c6ccccc6n2c5c31)C(=O)NC4 [Midostaurin] (first compound 10 µM, partner dose 0.4 µM) was 43.4%. With `Cn1nnc2c(C(N)=O)ncn2c1=O` [temozolomide] + C=CCn1c(=O)c2cnc(Nc3ccc(N4CCN(C)CC4)cc3)nc2n1-c1cccc(C(C)(C)O)n1 [MK1775] (first compound 10 µM, partner dose 0.1 µM), the cell count was 27.1%. The value for `O=C(O)[C@@H]1[O][Sb](=[O])([O][Sb]2(=[O])[O][C@H]([C@H](O)CO)[C@H](O)[C@H](C(=O)O)[O]2)[O][C@H]([C@H](O)CO)[C@@H]1O` (stereo partly drawn) [stibogluconate] + CO[C@H]1C[C@@H]2CC[C@@H](C)[C@@](O)(O2)C(=O)C(=O)N2CCCC[C@H]2C(=O)O[C@H]([C@H](C)C[C@@H]2CC[C@@H](OCCO)[C@H](OC)C2)CC(=O)[C@H](C)/C=C(\C)[C@@H](O)[C@@H](OC)C(=O)[C@H](C)C[C@H](C)/C=C/C=C/C=C/1C [everolimus] (first compound 10 µM, partner dose 0.1 µM) was 77.4%. The value for `O=C(O)[C@@H]1[O][Sb](=[O])([O][Sb]2(=[O])[O][C@H]([C@H](O)CO)[C@H](O)[C@H](C(=O)O)[O]2)[O][C@H]([C@H](O)CO)[C@@H]1O` (stereo partly drawn) [stibogluconate] + COc1cc(Nc2ncc(F)c(Nc3ccc4c(n3)NC(=O)C(C)(C)O4)n2)cc(OC)c1OC [Tamatinib] (first compound 10 µM, partner dose 2 µM) was 76.8%; that for `Cc1cc(N2CCOCC2)cc2[nH]c(-c3c(NC[C@@H](O)c4cccc(Cl)c4)cc[nH]c3=O)nc12` + OCCn1cc(-c2cnc3nnn(Cc4ccc5ncccc5c4)c3n2)cn1 [PF04217903] (first compound 1 µM, partner dose 5 µM) was 90.4%. The value for `O=C(O)c1ccc2c(c1)nc(Nc1cccc(Cl)c1)c1ccncc12` + Clc1ccc(Nc2nnc(Cc3ccncc3)c3ccccc23)cc1 [vatalanib] (first compound 2 µM, partner dose 10 µM) was 91.1%; that for `O=C(Nc1cc(C(F)(F)F)cc(C(F)(F)F)c1)c1cc(Cl)ccc1O` + OCCn1cc(-c2cnc3nnn(Cc4ccc5ncccc5c4)c3n2)cn1 [PF04217903] (first compound 0.08 µM, partner dose 5 µM) was 99.9%; that for `O=C(O)[C@@H]1[O][Sb](=[O])([O][Sb]2(=[O])[O][C@H]([C@H](O)CO)[C@H](O)[C@H](C(=O)O)[O]2)[O][C@H]([C@H](O)CO)[C@@H]1O` (stereo partly drawn) [stibogluconate] + CN(NC(=O)CC(=O)NN(C)C(=S)c1ccccc1)C(=S)c1ccccc1 [STA4783] (first compound 10 µM, partner dose 0.03 µM) was 11.8%. Molecule `O=C(Nc1cc(C(F)(F)F)cc(C(F)(F)F)c1)c1cc(Cl)ccc1O` + CCN(CC)CCNC(=O)c1c(C)[nH]c(/C=C2\C(=O)Nc3ccc(F)cc32)c1C [sunitinib] (first compound 0.08 µM, partner dose 2 µM) had a cell count of 77.1%.

On to `O=C(O)[C@@H]1[O][Sb](=[O])([O][Sb]2(=[O])[O][C@H]([C@H](O)CO)[C@H](O)[C@H](C(=O)O)[O]2)[O][C@H]([C@H](O)CO)[C@@H]1O` (stereo partly drawn) [stibogluconate] + O=C(CCCCCCC(=O)Nc1ccccc1)NO [vorinostat] (first compound 10 µM, partner dose 0.4 µM), for which the cell count came to 73.6%.

On to `O=C(O)[C@@H]1[O][Sb](=[O])([O][Sb]2(=[O])[O][C@H]([C@H](O)CO)[C@H](O)[C@H](C(=O)O)[O]2)[O][C@H]([C@H](O)CO)[C@@H]1O` (stereo partly drawn) [stibogluconate] + Cn1c(Nc2ccc(C(F)(F)F)cc2)nc2cc(Oc3ccnc(-c4ncc(C(F)(F)F)[nH]4)c3)ccc21 [CHIR265] (first compound 10 µM, partner dose 0.4 µM), for which the cell count was 84.2%. Consider `Cc1cc(N2CCOCC2)cc2[nH]c(-c3c(NC[C@@H](O)c4cccc(Cl)c4)cc[nH]c3=O)nc12` + O=C(O)c1ccc(-c2c[nH]c3ncc(-c4ccccc4)cc23)cc1C1CCCC1 [GSK650394] (first compound 1 µM, partner dose 0.8 µM), for which the cell count was found to be 91.7%. Molecule `O=C(Nc1cc(C(F)(F)F)cc(C(F)(F)F)c1)c1cc(Cl)ccc1O` + O=C(O)[C@@H]1[O][Sb](=[O])([O][Sb]2(=[O])[O][C@H]([C@H](O)CO)[C@H](O)[C@H](C(=O)O)[O]2)[O][C@H]([C@H](O)CO)[C@@H]1O [stibogluconate] (first compound 0.08 µM, partner dose 10 µM) came in with a cell count of 94.5%.

`O=C(Nc1cc(C(F)(F)F)cc(C(F)(F)F)c1)c1cc(Cl)ccc1O` + Cc1cc([N+](=O)[O-])ccc1NS(=O)(=O)c1cc(Cl)ccc1Cl [FH535] (first compound 0.08 µM, partner dose 5 µM) showed a cell count of 93%. The value for `O=C(Nc1cc(C(F)(F)F)cc(C(F)(F)F)c1)c1cc(Cl)ccc1O` + Cn1cncc1[C@@](N)(c1ccc(Cl)cc1)c1ccc2c(c1)c(-c1cccc(Cl)c1)cc(=O)n2C [tipifarnib] (first compound 0.08 µM, partner dose 0.05 µM) was 68.3%; that for `O=C(Nc1cc(C(F)(F)F)cc(C(F)(F)F)c1)c1cc(Cl)ccc1O` + CO[C@@H]1[C@H](N(C)C(=O)c2ccccc2)C[C@H]2O[C@]1(C)n1c3ccccc3c3c4c(c5c6ccccc6n2c5c31)C(=O)NC4 [Midostaurin] (first compound 0.08 µM, partner dose 0.4 µM) was 56.1%. The value for `O=C(Nc1ccccc1)c1cc([N+](=O)[O-])ccc1Cl` + Cc1cc([N+](=O)[O-])ccc1NS(=O)(=O)c1cc(Cl)ccc1Cl [FH535] (first compound 10 µM, partner dose 5 µM) was 78.5%; that for `O=C(O)[C@@H]1[O][Sb](=[O])([O][Sb]2(=[O])[O][C@H]([C@H](O)CO)[C@H](O)[C@H](C(=O)O)[O]2)[O][C@H]([C@H](O)CO)[C@@H]1O` (stereo partly drawn) [stibogluconate] + Nc1nc(F)nc2c1ncn2[C@@H]1O[C@H](CO)[C@@H](O)[C@@H]1O [fludarabine] (first compound 10 µM, partner dose 1 µM) was 74.8%.
